# From PubChem BioAssay AID686979 (National Center for Advancing Translational Sciences (NCATS), 2013)
# Values joined by “and” are separate entries in the source; they are usually repeats but may differ in a detail not shown here. Equal entries are not always repeated. Hit rate of the full screen: of about 420,000 compounds, about 50,000 (12%) were called active. Inconclusive means that the source gave no clear call. Such entries were picked first, then a sample of the others. Calls follow the shape of the dose curve; as a rule, active = well fitted inhibition curve with a large enough effect; inconclusive = small, poorly fitted or top-dose-only effect; inactive = flat fitted curve, though single readings scatter. Potencies of inconclusive entries are doubtful fits and often do not repeat.
# Experiment: qHTS for Inhibitors of human tyrosyl-DNA phosphodiesterase 1 (TDP1): qHTS in cells in presence of CPT; also: nearly all actives have a fitted effect of over 55% in size
# Conditions: chicken DT40 Tdp1-/-;hTDP1 cells + 20 nM CPT, ATP luminescence, 48 h; activity change, negative = growth inhibition: at 46.2 µM (top of the series) unless noted
# Summary of the method: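 Cell growth measured by CellTiter-Glo luminescence after a minimum 48 h, 37 C compound exposure with 20 nM CPT in Tdp1-knockout DT40 cells stably expressing hTDP1, seeded 400/well; qHTS titration format.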
# % is scaled to controls: 0 for no effect and ±100 for the full control effect; potency is read from the fitted curve at half-maximal effect; tags tell the direction and shape of the fitted curve.
SMILES,Potency,"activity change, negative = growth inhibition"
CC(C(=O)Nc1ccccc1C(F)(F)F)n1nc(-c2ccccc2)c2c(c1=O)CCCC2 (stereo not given),"inconclusive: 29.1 µM [inhibitor, single point]",–
O=C(NN=Cc1ccccc1Cl)c1cccc2ccccc12,–,inactive: -0.166%
Cc1cccc(-n2nc3c(c2NC(=O)C(C)C)CS(=O)(=O)C3)c1C,–,inactive: 4.77%
COC(=O)c1cc(NC(=O)c2c(C)noc2C)ccc1N1CCOCC1,–,inactive: -14.1%
Cc1c(CNC(=O)c2nn3c(c2Cl)NC(c2ccccc2)CC3C(F)(F)F)cnn1C (stereo not given),"inconclusive: 20.6 µM [inhibitor, single point]",–
CCOC(=O)c1c(CSc2ccsc2)n(C)c2cc(Br)c(O)c(CN(C)C)c12,active: 18.4 µM,–
CCOC(=O)c1sc(/S(C)=N\S(=O)(=O)c2cccc(Cl)c2)c2c1CCC=C2 (stereo not given),"inconclusive: 20.6 µM [inhibitor, single point]",–
O=C(CN1C(=O)c2cccc3cccc1c23)Nc1ccccc1C(=O)NCc1ccco1,"inconclusive: 29.1 µM [inhibitor, single point]",–
Nc1ccc(-c2nc3cc([N+](=O)[O-])ccc3o2)cc1,"inconclusive: 25.9 µM [inhibitor, single point]",–
C#CCOCCOCCOCCNc1nc(N2CCN(C(=O)CCCCCCCCCCNC(=O)[C@H](CO)n3cc(CCCSC)nn3)CC2)nc(N2CCN(C(=O)CCCCCCCCCCNC(=O)[C@H](CCCCN)n3cc(CCO)nn3)CC2)n1,"inconclusive: 29.1 µM [inhibitor, single point]",–
COc1ccc(CC(=O)Nc2cccc(-c3nnc(-c4ccccc4)o3)c2)cc1OC,active: 5.8 µM,–
CN(C)Cc1ccccc1-c1nccc(NCc2cccs2)n1,"inconclusive: 23.1 µM [inhibitor, single point]",–
Cc1cc(CNC(=O)C(C)n2nc(C)c([N+](=O)[O-])c2C)c2ccccc2n1 (stereo not given),–,inactive: 6.38%
Clc1ccc(OCc2nn3c(-c4ccco4)nnc3s2)cc1,"inconclusive: 29.1 µM [inhibitor, single point]",–
COc1ccc(OC)c(-c2cc(C(=O)N3CCN(c4ccccc4)CC3)no2)c1,"inconclusive: 29.1 µM [inhibitor, single point]",–
COc1cc(C)c(S(=O)(=O)N2CCN=C2c2ccccc2)cc1C,"inconclusive: 4.61 µM [inhibitor, partial curve]",–
CC(=O)N/C(N)=N/c1nc(=O)c2ccccc2s1,–,inactive: -2.68%
O=C(NCc1ccc2c(c1)CCN2C(=O)c1ccncc1)c1ccc(Cl)cc1,"inconclusive: 23.1 µM [inhibitor, single point]",–
CC(C)Oc1ccc(CNC(=O)CCCn2c(=O)c3cccn3c3cccnc32)cc1,active: 25.9 µM,–
COc1ccc(OC)c(NC(=O)CC2SC(=Nc3ccc(F)cc3)N(CCC3=CCCCC3)C2=O)c1 (stereo not given),"inconclusive: 18.4 µM [inhibitor, single point]",–
CCOC(=O)N1CCN(S(=O)(=O)c2ccc(F)c(C(=O)Nc3ccc(C)c(Cl)c3)c2)CC1,active: 16.4 µM,–
Cc1c(=O)n(OCc2ccc(Cl)cc2)c2ccccc2[n+]1[O-],–,inactive: -10.2%
O=C(c1ccco1)N1CCN(c2ccc(S(=O)(=O)N3CCCC3)cc2)CC1,"inconclusive: 18.4 µM [inhibitor, partial curve, poor fit]",–
CC(C)(C)c1nc2ccccc2c2nnc(SCC(=O)Nc3nccs3)n12,active: 3.26 µM,–

SMILES,Potency,"activity change, negative = growth inhibition"
CCOc1ccc(-n2c(=O)cc(N3CCN(c4ccc(F)cc4)CC3)[nH]c2=O)cc1,"inconclusive: 3.26 µM [inhibitor, partial curve]",–
Cc1ccc(S(=O)(=O)Nc2c(C)nn(C)c2C)cc1,–,inactive: -16.4%
Cc1ccc(NC(=O)c2ccc(OC(=O)COc3cccc(Cl)c3)cc2)cc1,"inconclusive: 29.1 µM [inhibitor, single point]",–
COc1cc(C2NC(=O)NC(C)=C2C(=O)OCC2CCCO2)cc(OC)c1OC (stereo not given),–,inactive: 11.1%
CCOC(=O)C1=C(C)N(C[C@@H]2CC[C@@H](Cc3ccc4cc(OC)ccc4c3)O2)C(=O)NC1c1ccc(OC)cc1 (stereo not given in full),"inconclusive: 23.1 µM [inhibitor, single point]",–
CC(NC(=O)c1cn(C)c2ccc(S(=O)(=O)N3CCCC3)cc2c1=O)c1ccc2c(c1)OCCO2 (stereo not given),"inconclusive: 23.1 µM [inhibitor, single point]",–
Cc1[nH]c2ccccc2c1CCN(Cc1cccnc1)C(=S)Nc1ccc(F)cc1,active: 16.4 µM,–
Cc1cc(C(=O)N2CCC2(C)C(=O)Nc2cccc3c2CCCC3)nn1C (stereo not given),"inconclusive: 29.1 µM [inhibitor, single point]",–
COc1ccc(C(=O)O)cc1S(=O)(=O)NC(C)C12CC3CC(CC(C3)C1)C2 (stereo not given),–,inactive: 17.1%
O=C(CSc1nc(-c2ccccc2)cn1-c1ccccc1)Nc1ccccc1,"inconclusive: 20.6 µM [inhibitor, single point]",–
CCCCCCCCN1C(=O)[C@H](CC(=O)N2CCN(C(=O)C3CC3)CC2)C[C@@]2(C(=O)OC)CC(C)(C)CC=C12,active: 14.6 µM,–
Cc1[nH]n(-c2ccccc2)c(=O)c1C=Nc1cnc2ccccc2c1,"inconclusive: 29.1 µM [inhibitor, single point]",–
CCCCCCSc1ccc([C@@H]2[C@@H]3C(=O)N(CC)C(=O)[C@@H]3[C@]3(C(=O)OC)CCCCN23)cc1OC,active: 20.6 µM,–
COc1cc(-c2nc3ccc(C)cn3c2Nc2ccc(Cl)cc2)ccc1O,active: 16.4 µM,–
O=C(Oc1cccc(-n2cnnn2)c1)c1ccccc1Cl,–,inactive: 13.4%
Cc1ccc(NC(=O)CCC(=O)c2cccs2)cc1,–,inactive: -13%
O=C(/C=C/c1ccc(S(=O)(=O)N2CCOCC2)cc1)NCc1ccccc1Cl,"inconclusive: 11.6 µM [inhibitor, partial curve]",–
COc1cccc(-c2nc3nc(C)cc(C)n3c2NCc2ccccc2)c1,"inconclusive: 18.4 µM [inhibitor, single point]",–
CCn1c(NCc2cccc(Cl)c2)nc2ccccc21,"inconclusive: 0.58 µM [inhibitor, full curve, poor fit]",–
O=c1cc(-c2ccc(O)cc2)oc2ccc(O)cc12,"inconclusive: 29.1 µM [inhibitor, single point] and inconclusive: 23.1 µM [inhibitor, partial curve, poor fit]",–
CC(C)N(Cc1ccccc1)C(=O)C1CCCN(c2ncnc3c2nc2n3CCCCC2)C1 (stereo not given),"inconclusive: 29.1 µM [inhibitor, single point]",–
C=CCNC(=O)/C(C#N)=C/c1ccc(SC)cc1,–,inactive: -6.32%
Cc1ccc(S(=O)(=O)Nc2nc(C)c(C(=O)N/N=C/c3ccccc3)s2)cc1,–,inactive: 2.59%
Cc1ccc(-c2nn(-c3ccccc3)cc2C2SCC(=O)N2Cc2ccccc2)o1 (stereo not given),active: 13 µM,–

SMILES,Potency,"activity change, negative = growth inhibition"
COC(=O)c1c(NC(=O)CC2SC(N)=NC2=O)sc2c1CCC(C)C2 (stereo not given),–,inactive: -7.54%
COc1ccc(C2CC(=O)c3cnc(N4CCN(Cc5ccccc5)CC4)nc3C2)cc1 (stereo not given),"inconclusive: 29.1 µM [inhibitor, single point]",–
CN1C(=O)/C(=C2/C=Cc3ccccc3N2CCCS(=O)(=O)O)SC1=S,–,inactive: -0.777%
O=C(c1cccc(Cl)c1)C1CCCN(S(=O)(=O)c2ccccc2)C1 (stereo not given),"inconclusive: 23.1 µM [inhibitor, single point]",–
Cc1ccc(-n2c3c(cc(C(=O)NCc4ccco4)c2=O)C(=O)CC(C)(C)C3)cc1,–,inactive: -7.24%
O=C(C(=O)N(Cc1ccccc1)Cc1ccccc1)c1c(-c2ccccc2)[nH]c2ccccc12,active: 10.3 µM,–
O=C(NCCCN1CCCCC1)c1cc(Sc2ccc(Cl)cc2)nc2ccccc12,active: 16.4 µM,–
CCOC(=O)N1CCN(S(=O)(=O)c2ccc(C(=O)N(CCCN(C)C)c3nc4ccc(OC)cc4s3)cc2)CC1,"inconclusive: 18.4 µM [inhibitor, single point]",–
Brc1ccccc1Cn1c(-c2cscn2)nc2ccccc21,active: 23.1 µM,–
Cc1cc(Cl)ccc1OCC(=O)Nc1ccncc1,"inconclusive: 18.4 µM [inhibitor, partial curve, poor fit]",–
COc1cccc2cc(C(=O)c3ccc([N+](=O)[O-])cc3)oc12,–,inactive: 3.62%
N#CCCn1c(=O)c(-c2ccc(Cl)cc2)nc2cnc(N3CCNCC3)nc21,active: 7.31 µM,–
Cc1ccc2oc(=O)cc(CN3CCC(C)CC3)c2c1,"inconclusive: 11.6 µM [inhibitor, partial curve]",–
COc1ccccc1N1CCN(S(=O)(=O)CCNC(=O)CC2CCCCC2)CC1,active: 16.4 µM,–
COc1ccc(-n2c(=O)c3ccc(C(=O)NCc4ccc(C)cc4)cc3n(CC(=O)Nc3ccc(C)cc3)c2=O)cc1,"inconclusive: 23.1 µM [inhibitor, single point]",–
CCCCC1CC1C(=O)Nc1ncc2c(n1)CC(C)(C)CC2=O (stereo not given),"inconclusive: 11.2 µM [inhibitor, single point]",–
Cc1ccc(-c2ccc(CN3C(C)C(=O)N(Cc4cn(CCC5OCCO5)nn4)CCS3(=O)=O)cc2)cc1 (stereo not given),active: 16.4 µM,–
O=C1C2C3C=CC(C3)C2C(=O)N1CN(Cc1ccccc1)CN1C(=O)C2C3C=CC(C3)C2C1=O (stereo not given),"inconclusive: 20.6 µM [inhibitor, single point]",–
O=c1[nH]c2cc([N+](=O)[O-])c([N+](=O)[O-])cc2[nH]c1=O,inactive,–
O=C1CN(C(=O)c2ccco2)c2ccccc2N1,–,inactive: -20.1%
COc1ccc(Cc2nc3ccc(C(=O)NCC4COCCO4)cc3o2)cc1OC (stereo not given),–,inactive: -8.84%
CCN1C(=S)SC(=O)C1=C1C=C(C)N(Cc2ccco2)C(C)=C1,active: 4.61 µM,–
